From the RNAGym collection of RNA variant scans (doi:10.7554/elife.90254)
The source gives no read counts; variants with many changes may rest on few reads.

B1: OR4K15 (parent)
chain: GUUAACGGUCAUAGGCCAUGGAAACUAGGAGCACCAUUUCGCUGCCAGUGAAGAAAUGAACAAAGAAAAUCUGGGCCAGGCAGGCAUCAAAAGAAAUAGUCUUGCGCUCAACCAGAAAGUCUGUAAUCAUUUUAAGGGUA

Variants of: B1
Experiment: self-cleavage, relative activity (ratio to wild type); higher = more cleavage; in vitro, sequencing; the parent is a self-cleaving ribozyme

Row | Variant | self-cleavage
1 | GUUAACGGUCAUAGGCCACGGAAACUAGGAGCGCCAUUUCGCUGCCAGUGAAGAAAUGAACAAAGAAAAUCUGGGCCAGGCAGGCAUCAAAAGAAAUAGUCUUGCGCUCAACCAGAAAGUCUGUGAUCACUUUAAGGGUA | 0.14
2 | AUUAACGGUCAUAGGCCAUGGAAACUAGGAGCACCAUUUCGCUGCCAGUGAAGAAAUGAACAAAGAAAAUCUGGGCCAGGCAGGCUUCAAAAGAAAUAGUCUUGCGCUCAGCCAGGAAGUCCGUAAUCAUUUUGAGGGUU | 0.01
3 | GUUAACGGUCAUAGGCCAUGGAAACUAGGGGCACCAUCUCGCUGCCAGUGAAGAAAUGAACAAAGUAAAUCUGGGCCAGGCAGGCAUCAAAAGAAAUAGUCUUGCGCUCAACCAGAAAGUCUGUAAUCAUUUUAAGGGUA | 1.37
4 | GUUAACGGUCAUAGGCCAUGGAAACUAGGAGCACCAAUUCGCCGCCAGUGAAGAAAUGAACAAAGAAGAUCUGGGCCAGGCAGGCAUCAAAAGAAAUAGUCUUGCGCUCAACCAGAAAGUCUGUAAUCAUUUUAAGGGUA | 2.58
5 | GCUAACGGUCAUAGGCCAUGGAAACUAGGAGCACCACUUCGCUGCCAGUGAAGAAAUGAACGAAGAAAAUCUGGGCCGGGCACGCAUCAAAAGAAAUAGUCUUGCGCUCAACCAGAAAGUCUGUAACCAUUCUAAGGGUA | 0.05
6 | GUUAACGGUCAUAGGCCAUGGAAACUAGGGGCACCAUUUCGCUGCCAGUGAAGAAAUGAACAAAGAAAAUCUGGGCCAGGCAGGCAACAAAAGAAACAGCCUUGCGCUCAACCAGAAAGUCUGUAAUCAUUUUAAGGGUA | 1.99
7 | GUUAACGGUCAUAGGCCAUGGAAACUAGGAGCACCACUUCGCUGCCAGUGAAGAAGUGAACAAAGAGAACCUGGGCCAGGCAGGCAUCAAAAGAAAUAGUCUUGCGCUCAACCAGAAAGUCUGUAAUCAUUCUAAGGGUA | 0.86
8 | GUUAACGGUCAUAGGCCAUGGAGACUAGGAGCACCAUUUCGCUGCCAGUGAAGAAAUGAACAAAGAAAAUCUGGGCCAGGCAGGCAUCAAGAGAAGUAGUCUUGCGCUCAACCAGAAAGUCUGUAAUCAUUUUAAGGGUA | 1.2
9 | GUUAACGAUCAUAGGCCAUGGAAACUAGGAGCACCAUUUCGCUGCCAGUGAAGAAAUGAACAAAGAAGAUCUGGGCCAGGCAGGCAUCAAAAGAAAUAGUCUUGCGCUCAACCAGAAAGUCUGUAAUCAUUCUAAGGGUA | 1.62
10 | GUUAACGGUCAUAGGCCAUGGAAACUAGGAGCACCAUUUCGCUGCCAGUGAAGAAAUGAACAAGGAAGAUCUGGGCCAGGCAGGCAUCAAAAGAAAUAGUCUUGCGCUCAACCAGAAAGUCCGUAAUCAUUUUAAGGGUA | 1.09
11 | GUUGACGGUCAUAGGCCAUGGAAAUUAGGAGCACCAUUUCGCUGCCAGUGAAGAAAUGAACGAAGAAAAUCUGGGCCAGGCAGGCAUCAAUAGAAAUAGUCUUGCGCUCAACCAGAAAGUCUGUAAUCAUUUUAAGGGUA | 1.65
12 | GUUAACGGUCAUAGGCAAUGGAGACUAGGAGCACCAUUUCGCUGCCAGUGAAGAAACGAACAAAGAAAAUCUGGGCCAGGCAGGCAUCAAAAGAAAUAGUCUUGCGCUCAACCAGAAAGUCUGUAAUCAUUUUAAGGGUA | 0.7
13 | GUUAACGGCCAUAGGCCAUGGGAACUAGGAGCACCAUUUCGCUGCCGGUGAAGAAAUGAACAAAGAAAAUCUGGGCCAGGCAGGCAUCAAAAGGAAUAGUCUUGCGCUCAACCAGAAAGUCUGUAAUCGUUUUAAGUGUA | 1.03
14 | GUUAACGGUCAUAGGCCAUGGAAACUAGGAGCACCAUUUCGCUGCCAGUGAAGAAGUGAACAAAGAAAAUCUGGGCCAGGCAGGCAUCAGAGGAAAUAGUCUUGCGCUCAACCAGAAAGUCUGUAAUCAUUUUAAGGGUA | 1.53
15 | GUUAACGGUCAUAGGCCAUGGAAACUAGGUGCGCCAUUUCGCUGCCAGUGAAGAAAUGAACAAAGAAAAUCUGGGCCAGGCAGGCAUCAAAAGAAAUAGUCUUGCGCUCAACCAGAAAGUCUGCAAUCAUUUUAAGGGUA | 0.48
16 | GUUAACGGUCAUAGGCCAUGGGAACUAGGAGCACCAUUUCGCUGCCAGUGAAGAAGUGAACAUAGAAGAUCUGGGCCAGGCAGGCAUCAAAAGAAAUAGUCUUGCGCUCAACCAGAAAGUCUGUAAUCAUUUUAAGGGUA | 1.78
17 | GUUAACGGUCGUAGGCCAUGGAAACUAGGAGCACCAUUUCGCUGCCAGUGAGGAAAUGAACAAAGAAAAUCUGGGCCUGGCAGGCAUCAAAAGGAAUAGUCUUGCGCUCAACCAGAAAGUCUGUAAUCCUUUUAAGGGUA | 0.08
18 | GUUAACGGUCAUAGGCCAUGGAAACUAGGAGCACCACUUCGCUGCCAGUGAAGAAAUGAACAAAGAAAAUCUGGGCCAGGCAGGCAUCAAAAGAAAUAGUCUUGCGCUCAACCAGAAAGUCUGUAAUCAUCUUAAGGGCA | 1.66
19 | GUUAACGGUCAUAGGCCAUGGGAACUAGGAGCACCAUCUCGCUGCCAGUGGAGAAAUGAACGAAGAAAAUCUGGGCCAGGCAGGCAUCAAAAGAAAUAGUCUUGCGCUCAACCAGAAAGUCUGUGACCAUUUUAAGGGUA | 1.29
20 | GUUAACGGUCAUAGGCCAUGGAAACUAGGAGCACCAUUUCGCUGCCAGUGAAGGAAUGAACAAAGAAAGUCUGGGCCAGGCAGGCAUCAAAAGAAAUAGUCUUGCGCUCAACCAGAAGGACUGUAAUCAUUUUAAGGGUA | 1.8
21 | GUUAACGGUCAUAGGCCAUGGAAACUAGGAGCACCAUAUCGCAGCCAGUGAAGAAAUGAGCAAAGAAAAUCUGGGCCAGGCAGGCAUCAAAAGAAGUAGUCUUGCGCUCAACCAGAAAGUCUGUAAUCAUUUUAAGGGUA | 0.92
